Assay results published in PubChem BioAssay (NCATS).
The shares of active, inactive and inconclusive entries below differ from those in the screen. A potency beside an inconclusive call is a rough fit, not a confirmed value. Active and inactive are the calls of the source. The call rests on the fitted dose curve; in most records, active means well fitted curve in the direction sought with a large enough effect; inconclusive means small, poorly fitted or top-dose-only effect, or another doubt; inactive means no such curve, though single readings can be large; an effect the other way counts as inactive or inconclusive.

Experiments:
[1] = target: Rap guanine nucleotide exchange factor 3 (Homo sapiens) (UniProt O95398); test: Confirmatory qHTS for antagonist of cAMP-regulated guanine nucleotide exchange factor 3 (EPAC1) (AID 1645880); details: EPAC1 Rap1B-BODIPY-GDP exchange, fluorescence; activity, negative = inhibition: at 115 µM (top of the series); further: nearly all actives have a fitted effect of over 55% in size;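 on activity, negative = inhibition: plate controls were DMSO only for no effect and full effect of the ATA control for full effect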
Summary of the method: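 Nucleotide exchange uses 100 nM EPAC1, 250 nM RAP1B-BODIPY-GDP and 50 uM GDP, with compounds in a concentration-titration series. After 5 min at room temperature, fluorescence (480 nm ex/540 nm em) is read every 5 min for 30 min. Data are normalized to control ATA and DMSO.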

[2] = target: Rap guanine nucleotide exchange factor 3 (Homo sapiens) (UniProt O95398); test: Counterscreen qHTS for agonist of cAMP-regulated guanine nucleotide exchange factor 3 (EPAC1) (AID 1645889); details: EPAC1 Rap1B-BODIPY-GDP exchange, fluorescence; activation: at 154 µM (top of the series) unless noted; further: nearly all actives have a fitted effect of over 40% in size; on activation: % of control where 0% means no effect
Summary of the method: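 Rap1B-BODIPY-GDP 250 nM + GDP 50 uM; cpds 7-pt, final 9.74 nM–152 uM (activator mode) or from 7.32 nM upwards (inhibitor mode); RT; FI 480/540 nm at 5 and 30 min, then ± cAMP, reread.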
Potency means the concentration at half of the fitted maximal effect; tags describe the fitted curve by direction and shape.

Chain of UniProt O95398 (O95398 whole entry, looked up): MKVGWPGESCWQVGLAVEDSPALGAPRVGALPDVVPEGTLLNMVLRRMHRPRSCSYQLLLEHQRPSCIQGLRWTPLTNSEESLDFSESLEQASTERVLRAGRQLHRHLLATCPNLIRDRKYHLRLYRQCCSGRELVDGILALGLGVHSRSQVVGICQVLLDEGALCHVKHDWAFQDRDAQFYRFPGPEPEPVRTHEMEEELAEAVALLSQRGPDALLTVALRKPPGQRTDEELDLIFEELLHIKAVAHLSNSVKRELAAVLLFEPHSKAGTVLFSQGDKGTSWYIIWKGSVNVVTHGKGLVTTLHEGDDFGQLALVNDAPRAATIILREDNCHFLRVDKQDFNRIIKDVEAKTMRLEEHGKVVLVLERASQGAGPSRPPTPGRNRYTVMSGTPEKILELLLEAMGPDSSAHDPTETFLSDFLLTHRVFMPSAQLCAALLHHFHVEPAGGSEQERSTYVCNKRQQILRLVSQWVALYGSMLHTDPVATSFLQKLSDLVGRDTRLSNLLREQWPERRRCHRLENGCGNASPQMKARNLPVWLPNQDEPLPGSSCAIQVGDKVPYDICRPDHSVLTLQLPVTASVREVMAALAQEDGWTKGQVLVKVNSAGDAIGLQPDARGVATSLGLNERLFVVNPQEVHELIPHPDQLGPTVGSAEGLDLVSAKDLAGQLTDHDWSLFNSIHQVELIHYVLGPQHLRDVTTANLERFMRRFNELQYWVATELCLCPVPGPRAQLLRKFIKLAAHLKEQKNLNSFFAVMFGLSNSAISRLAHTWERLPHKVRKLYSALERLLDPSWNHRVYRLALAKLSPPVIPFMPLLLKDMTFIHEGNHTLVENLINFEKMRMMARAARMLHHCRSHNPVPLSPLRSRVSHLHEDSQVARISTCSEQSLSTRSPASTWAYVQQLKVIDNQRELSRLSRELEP

SMILES	Potency [1]	Potency [2]	activation [2]	activity, negative = inhibition [1]
O=C(CCn1cnc2onc(-c3ccc(F)cc3)c2c1=O)Nc1ccc(F)c(Cl)c1	inconclusive: 95.3 µM [inhibitor, partial curve, poor fit]	inactive		
COC(=O)c1nn(-c2ccccc2)c(Sc2ccc(OC)cc2)c1/C=N/O	inconclusive: 44.7 µM [inhibitor, partial curve, poor fit]		inactive: 23% [at 30.8 µM]	
Cc1ccc(S(=O)(=O)N(C)C)cc1NC(=O)CSc1nc2ncc(Cl)cc2[nH]1	inactive	inconclusive: 0.158 µM [activator, full curve, poor fit]		
O=C1OC(c2ccccc2)Sc2ccccc21 (stereo unspecified)	inactive		inactive: -3.76% [at 30.8 µM]	
CCOC(=O)c1ccc(NC(=O)CC2Nc3cccc4cccc(c34)NC2=O)cc1 (stereo unspecified)	inconclusive: 84.9 µM [inhibitor, partial curve]	inconclusive: 3.16 µM [activator, full curve, poor fit]		
CCCN(CCC)Cc1cc(=O)oc2cc(C)cc(C)c12	inactive	inconclusive: 1.41 µM [activator, full curve, poor fit]		
O=C(Nc1nc(-c2cc(F)ccc2F)cs1)C1=COCCO1	inconclusive: 75.7 µM [inhibitor, partial curve, poor fit]	inactive		
Cc1ccc(C2=N/C(=C\c3c(C)nn(-c4ccccc4)c3N3CCCC3)C(=O)O2)cc1	inactive		inconclusive: 45.4% [activator]	
COc1ccc(C2CC(=O)Oc3cc(C)c(Cl)cc32)cc1 (stereo unspecified)	inactive	inconclusive: 20 µM [activator, full curve, poor fit]		
Cc1ccc(C)c(-c2ccc(=O)n(C(C)C(=O)Nc3ccccc3C(F)(F)F)n2)c1 (stereo unspecified)	inconclusive: 84.9 µM [inhibitor, partial curve, poor fit]	inconclusive: 35.5 µM [activator, partial curve]		
CC(C)Cc1ccc(CN2CCCC(NC(=O)c3cnc4ccccn4c3=O)C2)cc1 (stereo unspecified)	inconclusive: 70.8 µM [inhibitor, partial curve, poor fit]		inconclusive: 43.8% [activator] [at 30.8 µM]	
COc1ccccc1C(=O)NC(=O)COC(=O)C1CC1	inactive		inconclusive: 34.2% [activator]	
COc1ccc(CCn2c(=N)c(S(=O)(=O)c3ccc(C)cc3)cc3c(=O)n4ccccc4nc32)cc1	active: 79.4 µM	inconclusive: 0.501 µM [activator, full curve, poor fit]		
CCOC(=O)c1cc(C(C)(C)C)nc(SC)c1C#N	inactive	inactive		
Cc1sc2ncnc(N3CCCC(C)C3)c2c1C (stereo unspecified)	inactive	inactive		
Cc1cc(=O)n(Cc2cccc(Cl)c2)c2c1c(C)nn2C	inactive		inconclusive: 48.5% [activator]	
Cc1ccc(NCc2nc3ccccc3n2CCOc2ccccc2)cc1	inconclusive: 95.3 µM [inhibitor, partial curve, poor fit]	inconclusive: 12.6 µM [activator, full curve]		
CC(=O)C(=Cc1ccc(Cl)cc1)C(=O)c1ccccc1	inconclusive: 47.8 µM [inhibitor, partial curve, poor fit]	inconclusive: 11.2 µM [activator, partial curve, poor fit]		
NS(=O)(=O)c1ccc2c(c1)C1C=CCC1C(C1CC=CCC1)N2 (stereo unspecified)	inconclusive: 50.1 µM [inhibitor, partial curve, poor fit]	inconclusive: 15.8 µM [activator, partial curve, poor fit]		
COc1cccc(C(=O)Nc2ccc(NC(=O)c3ccco3)c(Cl)c2)c1	inconclusive: 10 µM [inhibitor, partial curve]		inconclusive: 36.4% [activator] [at 30.8 µM]	
Cc1ccc(Cn2ccnc2SCC(=O)Nc2ccc3c(c2)OCO3)cc1		inconclusive: 35.5 µM [activator, partial curve]		inconclusive: -30.1% [inhibitor]
Oc1ccc2ccccc2c1-c1sc(Nc2ccccc2)n[n+]1-c1ccc(F)cc1	active: 19 µM	inactive		
CCOc1ccc(CN2C(=O)c3ccccc3Sc3ccc(C(=O)NCc4ccc5c(c4)OCO5)cc32)cc1	inactive	inconclusive: 8.91 µM [activator, partial curve]		
